Assay results published in PubChem BioAssay AID463173 (ICCB-Longwood Screening Facility, Harvard Medical School, 2010).
About 4,300 (8.3%) of roughly 52,000 compounds were called active. No stated cut-off is given here; in the data, active means survival mostly below about 52% (no sharp cut-off); inactive means mostly above about 56%. The list shows a part of the results.

Tested on: DeltatarO mutant
Assay: S. aureus survival, RN4220 and DeltatarO strains – OD600, teichoic acid synthesis inhibitors, primary screen (AID 463173)
Conditions: S. aureus RN4220 wild type/DeltatarO growth, OD600, 18 h, hits give low values, screened at 18.75 µg/mL (by protocol)

SMILES	survival
COc1ccc(NC(=O)Cn2c(=O)n(-c3ccc(Cl)cc3)c(=O)c3c(C)c(C(=O)N(C)C)sc32)cc1Cl	inactive: 69%
CCOC(=O)c1cc(-c2ccc(F)cc2)n(CCC(=O)Nc2ccccc2OC)c1C	inactive: 101%
Cc1ccc(CSc2nc(=O)c3c(C)cc(C)nc3n2C2CC2)cc1	inactive: 116%
COc1ccccc1-c1c(C)nn2c(N3CCN(c4ccc(Cl)cc4)CC3)cc(C)nc12	inactive: 83%
CCCCOc1ccc(S(=O)(=O)Nc2cccc(-c3ccc(N4CCOCC4)nn3)c2)cc1	inactive: 83%
CC(Sc1nc(-c2ccccc2)c(C#N)c(=O)[nH]1)C(=O)Nc1ccc(F)cc1 (configuration not stated)	inactive: 70%
CCOC(=O)c1ccc(Nc2nc(C)cc(C)n2)cc1	inactive: 85%
COc1ccc(N(CC(=O)N2CCN(c3cc(C)ccc3C)CC2)S(=O)(=O)c2c(C)noc2C)cc1	inactive: 70%
CCN(CC)C(=O)Cn1c(C)c(C#N)c2ccccc21	inactive: 96%
COc1ccc(-c2nc(CCNC(=O)c3cc(OC)c(OC)c(OC)c3)cs2)cc1	inactive: 124%
COc1ccc(CNC(=O)Cc2c(C)c3c(cc(C)c4c(C)coc43)oc2=O)cc1	inactive: 90%
CCCN1CCN(CC2=C(C(=O)OCC)C(c3ccc(Cl)cc3)NC(=O)N2)CC1 (configuration not stated)	inactive: 93%
CC(C)c1ccc(C2c3c(-c4ccccc4O)n[nH]c3C(=O)N2CCc2ccccc2)cc1 (configuration not stated)	inactive: 50%
Cc1ccc(-n2ncc3c(NNC(=O)c4ccccc4C)ncnc32)cc1	inactive: 98%
COc1ccc(-c2c(C)nn3c(N4CCC(C(=O)NCCC(C)C)CC4)cc(C)nc23)cc1OC	inactive: 94%
CC(C)CCn1c(SCc2ccc(F)cc2Cl)nc2ccsc2c1=O	inactive: 89%
CC1=C(C(=O)Nc2ccccc2)C(c2ccc(C(=O)O)cc2)n2nc(SCC(=O)c3ccc(C)cc3)nc2N1 (configuration not stated)	inactive: 82%
CCN(CC)CCn1c(=N)n(CC(O)COc2ccccc2C)c2ccccc21 (configuration not stated)	inactive: 80%
Cc1ccc(Cn2c(=O)c3c(nc4n3CCN4c3cc(C)cc(C)c3)n(C)c2=O)cc1	inactive: 73%
C=CCn1c(C(C)NC(=O)c2ccccc2Cl)n[nH]c1=S (configuration not stated)	inactive: 76%
CCc1ccc(-c2[nH]c3c(c2-c2c(-n4cccc4)n(C)c(=O)n(C)c2=O)c(=O)n(C)c(=O)n3C)cc1	inactive: 105%
COC(=O)C1CCN(S(C)(=O)=O)CC1	inactive: 81%

SMILES	survival
COc1cccc(NC(=O)Cn2c(=O)n(CCCC(=O)NCc3ccc4c(c3)OCO4)c(=O)c3ccccc32)c1	inactive: 115%
O=S(=O)(Cc1ccccc1)N1CCC(c2nc(-c3cccs3)no2)CC1	inactive: 75%
c1ccc(CCCN2CCN(C3CCCC3)CC2)cc1	inactive: 95%
CCOC(=O)N1CCc2c(sc(NCc3ccc(OC)c(Br)c3)c2C(=O)Nc2cc(OC)ccc2OC)C1	inactive: 80%
CCOC(=O)c1ccccc1NC(=O)N(Cc1ccc(C)cc1)Cc1cccn1-c1nnc(N2CCCC2=O)s1	inactive: 118%
COC(=O)c1c(NC(=O)c2ccc(S(=O)(=O)N3CCCCC3C)cc2)sc2c1CCN(C(C)C)C2 (configuration not stated)	inactive: 124%
Cc1ccccc1-c1noc(CSc2nnc(Cc3ccccc3)n2-c2ccc(F)cc2)n1	inactive: 52%
COc1ccc(-c2noc(CSc3nnc(-c4ccncc4)n3-c3ccccc3)n2)cc1	inactive: 70%
CCC(C)n1c(=N)c(S(=O)(=O)c2ccc(C)cc2)cc2c(=O)n3cc(C)ccc3nc21 (configuration not stated)	inactive: 75%
COc1cccc(C2=NN(S(C)(=O)=O)C(c3cn(-c4ccccc4)nc3-c3cccs3)C2)c1 (configuration not stated)	inactive: 168%
COc1ccc(CNC(=O)CN(C)c2nn3c(=O)cc(C)nc3s2)cc1	inactive: 94%
CC(=O)c1ccc(N2CCN(C(=O)CS(=O)(=O)c3cccc4nsnc34)CC2)cc1	inactive: 81%
COc1ccccc1NC(=O)N1CC=C(c2c[nH]c3ccccc23)CC1	active: 42%
Cc1cc(=O)[nH]c2nnc(SCCC(C)C)n12	inactive: 73%
COc1ccc(CCNC(=O)CSc2nnc(-c3ccc(C)cc3)c(-c3ccc(C)cc3)n2)cc1OC	inactive: 94%
CCCCOc1cccc(C(=O)N(Cc2ccc(Cl)cc2)C2CCS(=O)(=O)C2)c1 (configuration not stated)	inactive: 54%
Cc1ccc(-c2noc(-c3ccc(NCC4CCCO4)c([N+](=O)[O-])c3)n2)cc1 (configuration not stated)	inactive: 74%
COc1cc(C=C(C#N)C#N)ccc1OC(=O)c1ccco1	inactive: 89%
CS(=O)(=O)n1nc(-c2ccco2)nc1N	inactive: 91%
CCNC(=S)N1CCN(CC)CC1	inactive: 75%
Cn1ccc2cc(S(=O)(=O)N3CCCN(C(=O)Nc4ccc(Br)cc4)CC3)ccc21	inactive: 73%
COCc1[nH]nc2c1C(c1ccccc1C(F)(F)F)C(C#N)=C(N)O2 (configuration not stated)	inactive: 76%

SMILES	survival
CCOc1ccccc1C(=O)N(Cc1ccc(N(C)C)cc1)Cc1ccco1	inactive: 72%
COc1cc(C(=O)Nc2ccccc2OCc2cc(=O)n3cc(C)sc3n2)cc(OC)c1OC	inactive: 135%
Nc1nc(N)nc(COc2ccccc2)n1	inactive: 102%
Cc1ccc(-c2nnc(Nc3ccc(Cl)cc3)c3ccccc23)cc1S(=O)(=O)NCC1CCCO1 (configuration not stated)	inactive: 95%
O=C(c1cccc(Cl)c1)N1CCC(c2nc3c(nnn3Cc3ccc(F)cc3F)c(=O)[nH]2)CC1	active: 11%
COc1ccc(C(=O)c2cn(Cc3ccccc3F)c3ccc(F)cc3c2=O)cc1	inactive: 76%
CC1(C)CCCC2(C)C1CCC(C)(O)C2CCO (configuration not stated)	inactive: 71%
Cc1cccc(NC(=O)c2oc3ccc(S(=O)(=O)N4CCCCC4)cc3c2C)c1C	inactive: 71%
COc1ccc(-c2[nH]c(-c3ccc(OC)c(OC)c3)nc2SCC(=O)Nc2ccccc2)cc1	inactive: 56%
COc1cc(OC)c(NC(=O)N2CCOc3ccc(C)cc32)cc1Cl	inactive: 71%
Cc1nn(-c2ccccc2)c2sc(C(=O)NN=C3CCCC3)cc12	inactive: 109%
O=c1c2c(n3nnnc3n1-c1ccccc1)-c1ccccc1CC21CCCC1	inactive: 109%
COc1ccc(CNC(=O)c2oc3c(c2C)-c2nn(Cc4ccccc4Cl)cc2CC3)cc1	inactive: 89%
N#Cc1cc2c(=O)n3ccccc3nc2n(-c2nnc(SCc3ccc(F)cc3)s2)c1=O	inactive: 78%
Cc1ccc(C)c(NC(=O)C(=O)NCC(c2cccnc2)N2CCN(c3ccc(F)cc3)CC2)c1 (configuration not stated)	active: 15%
CCOC(=O)c1ccc2c(c1)N(CC(=O)Nc1cc(F)ccc1F)C(=O)c1ccccc1S2	inactive: 71%
O=C(NCCCN1CCN(c2ccc(F)cc2)CC1)c1cc2c(s1)-c1ccccc1OC2	active: 55%
CSc1ccccc1NC(=O)C1=CC(c2ccc3c(c2)OCO3)=NS(=O)(=O)N1C	inactive: 73%
Cc1cccc(-c2nc3cc(NC(=O)Cc4ccc(Cl)cc4)ccc3o2)c1	inactive: 66%
N=c1n(CC(=O)O)c2ccccc2n1Cc1ccccc1	inactive: 84%
CCN(CC)CCOC(=O)c1ccc(NC(=O)c2nn(-c3ccc(C)cc3)c(=O)c3c2c2ccccc2n3C)cc1	inactive: 100%
CCN(C(=O)Cn1nc2c3cc(F)ccc3n(Cc3cccc(C)c3)cc-2c1=O)c1cccc(C)c1	inactive: 109%

SMILES	survival
CCOC(=O)CCN(Cc1ccccc1)S(=O)(=O)c1csc(C(N)=O)c1	inactive: 83%
CC1CN(C(=O)CCC(=O)NCc2cccs2)c2ccccc2O1 (configuration not stated)	inactive: 62%
COc1ccc(NC(=O)c2c(NCc3ccc(C)o3)sc3c2CCC(C)C3)cc1 (configuration not stated)	inactive: 116%
CCOC(=O)c1ccc(NC(=O)c2nc(S(=O)(=O)Cc3ccccc3)ncc2Cl)cc1	active: -2%
COc1cc(NC(=O)C2=C(C)Nc3nnnn3C2c2ccc(SC)cc2)c(OC)cc1Cl (configuration not stated)	inactive: 63%
Cc1ccc(S(=O)(=O)c2cn(C)c3cc(N4CCN(c5ccccc5)CC4)c(F)cc3c2=O)cc1	inactive: 95%
CCOC(=O)N1CCc2c(sc3c2c(=O)n(Cc2ccccc2)c(=O)n3Cc2cccc(Cl)c2)C1	inactive: 83%
Cc1ccc(-n2nc(C(=O)N3CCCCC3C)c(=O)n(C)c2=O)cc1 (configuration not stated)	inactive: 95%
CC1CCCCN1S(=O)(=O)c1ccc(NC(=O)c2cnccn2)cc1 (configuration not stated)	inactive: 80%
Cc1nn(CCCC(=O)NCc2ccccc2)c(=O)c2c1sc1ccccc12	inactive: 105%
O=C(CC1N=C2c3ccccc3N=C(SCC(=O)Nc3ccccc3F)N2C1=O)NCc1ccc2c(c1)OCO2 (configuration not stated)	inactive: 73%
Cc1ccc2occ(CC(=O)Nc3c(C(=O)Nc4ccc(Cl)cc4)oc4ccccc34)c2c1	inactive: 67%
CC(C)COc1ccc(C(=O)N2CCC(c3nc4ccccc4s3)CC2)cc1	active: 17%
Cc1cccc(C)c1NC(=O)CN(C)S(=O)(=O)c1ccc2[nH]c3c(c2c1)CCCC3	inactive: 119%
O=C1CN=C(Nc2ccc(F)cc2)N1C1CCCC1	inactive: 98%
CN(C(=O)CSc1nc2ccccc2[nH]1)c1ccc(F)cc1	inactive: 98%
Cc1ccc(CSc2nncn3c2cc2sccc23)cc1	inactive: 76%
CC(C)CCn1c(=O)c2sccc2n2c(CCCC(=O)Nc3ccc(C(C)C)cc3)nnc12	inactive: 86%
CCOC(=O)CC(NS(=O)(=O)c1cc(-c2cc(C)no2)ccc1C)c1ccc(C)cc1 (configuration not stated)	inactive: 74%
COc1ccc(N2CCN(c3nc4ccccc4n4c(C)nnc34)CC2)cc1	inactive: 73%
CCOc1ccc(C(=O)Nc2ccc3nc4c(c(Nc5ccccc5OC)c3c2)CCCC4)cc1	inactive: 74%
